The other results are listed elsewhere or left out. Binding of human transcription factors and regulators to the viral nucleoprotein by AlphaScreen, crude cell-free proteins, amounts not normalised, one pass. Fold of the Venus control; higher = more signal. No active / inactive call. Single-pass screen; sequences are the whole Swiss-Prot entries looked up by name.
B1: TCF19, Q9Y242 (protein)
chain: MLPCFQLLRIGGGRGGDLYTFHPPAGAGCTYRLGHRADLCDVALRPQQEPGLISGIHAELHAEPRGDDWRVSLEDHSSQGTLVNNVRLPRGHRLELSDGDLLTFGPEGPPGTSPSEFYFMFQQVRVKPQDFAAITIPRSRGEARVGAGFRPMLPSQGAPQRPLSTFSPAPKATLILNSIGSLSKLRPQPLTFSPSWGGPKSLPVPAPPGEMGTTPSAPPQRNRRKSVHRVLAELDDESEPPENPPPVLMEPRKKLRVDKAPLTPTGNRRGRPRKYPVSAPMAPPAVGGGEPCAAPCCCLPQEETVAWVQCDGCDVWFHVACVGCSIQAAREADFRCPGCRAGIQT
B2: TBP, P20226 (protein)
chain: MDQNNSLPPYAQGLASPQGAMTPGIPIFSPMMPYGTGLTPQPIQNTNSLSILEEQQRQQQQQQQQQQQQQQQQQQQQQQQQQQQQQQQQQQQQQQAVAAAAVQQSTSQQATQGTSGQAPQLFHSQTLTTAPLPGTTPLYPSPMTPMTPITPATPASESSGIVPQLQNIVSTVNLGCKLDLKTIALRARNAEYNPKRFAAVIMRIREPRTTALIFSSGKMVCTGAKSEEQSRLAARKYARVVQKLGFPAKFLDFKIQNMVGSCDVKFPIRLEGLVLTHQQFSSYEPELFPGLIYRMIKPRIVLLIFVSGKVVLTGAKVRAEIYEAFENIYPILKGFRKTT
B3: ZNF281, Q9Y2X9 (protein)
chain: MKIGSGFLSGGGGTGSSGGSGSGGGGSGGGGGGGSSGRRAEMEPTFPQGMVMFNHRLPPVTSFTRPAGSAAPPPQCVLSSSTSAAPAAEPPPPPAPDMTFKKEPAASAAAFPSQRTSWGFLQSLVSIKQEKPADPEEQQSHHHHHHHHYGGLFAGAEERSPGLGGGEGGSHGVIQDLSILHQHVQQQPAQHHRDVLLSSSSRTDDHHGTEEPKQDTNVKKAKRPKPESQGIKAKRKPSASSKPSLVGDGEGAILSPSQKPHICDHCSAAFRSSYHLRRHVLIHTGERPFQCSQCSMGFIQKYLLQRHEKIHSREKPFGCDQCSMKFIQKYHMERHKRTHSGEKPYKCDTCQQYFSRTDRLLKHRRTCGEVIVKGATSAEPGSSNHTNMGNLAVLSQGNTSSSRRKTKSKSIAIENKEQKTGKTNESQISNNINMQSYSVEMPTVSSSGGIIGTGIDELQKRVPKLIFKKGSRKNTDKNYLNFVSPLPDIVGQKSLSGKPSGSLGIVSNNSVETIGLLQSTSGKQGQISSNYDDAMQFSKKRRYLPTASSNSAFSINVGHMVSQQSVIQSAGVSVLDNEAPLSLIDSSALNAEIKSCHDKSGIPDEVLQSILDQYSNKSESQKEDPFNIAEPRVDLHTSGEHSELVQEENLSPGTQTPSNDKASMLQEYSKYLQQAFEKSTNASFTLGHGFQFVSLSSPLHNHTLFPEKQIYTTSPLECGFGQSVTSVLPSSLPKPPFGMLFGSQPGLYLSALDATHQQLTPSQELDDLIDSQKNLETSSAFQSSSQKLTSQKEQKNLESSTGFQIPSQELASQIDPQKDIEPRTTYQIENFAQAFGSQFKSGSRVPMTFITNSNGEVDHRVRTSVSDFSGYTNMMSDVSEPCSTRVKTPTSQSYR
B4: ESR1, P03372 (protein)
chain: MTMTLHTKASGMALLHQIQGNELEPLNRPQLKIPLERPLGEVYLDSSKPAVYNYPEGAAYEFNAAAAANAQVYGQTGLPYGPGSEAAAFGSNGLGGFPPLNSVSPSPLMLLHPPPQLSPFLQPHGQQVPYYLENEPSGYTVREAGPPAFYRPNSDNRRQGGRERLASTNDKGSMAMESAKETRYCAVCNDYASGYHYGVWSCEGCKAFFKRSIQGHNDYMCPATNQCTIDKNRRKSCQACRLRKCYEVGMMKGGIRKDRRGGRMLKHKRQRDDGEGRGEVGSAGDMRAANLWPSPLMIKRSKKNSLALSLTADQMVSALLDAEPPILYSEYDPTRPFSEASMMGLLTNLADRELVHMINWAKRVPGFVDLTLHDQVHLLECAWLEILMIGLVWRSMEHPGKLLFAPNLLLDRNQGKCVEGMVEIFDMLLATSSRFRMMNLQGEEFVCLKSIILLNSGVYTFLSSTLKSLEEKDHIHRVLDKITDTLIHLMAKAGLTLQQQHQRLAQLLLILSHIRHMSNKGMEHLYSMKCKNVVPLYDLLLEMLDAHRLHAPTSRGGASVEETDQSHLATAGSTSSHSLQKYYITGEAEGFPATV
B5: STAT5B, P51692 (protein)
chain: MAVWIQAQQLQGEALHQMQALYGQHFPIEVRHYLSQWIESQAWDSVDLDNPQENIKATQLLEGLVQELQKKAEHQVGEDGFLLKIKLGHYATQLQNTYDRCPMELVRCIRHILYNEQRLVREANNGSSPAGSLADAMSQKHLQINQTFEELRLVTQDTENELKKLQQTQEYFIIQYQESLRIQAQFGPLAQLSPQERLSRETALQQKQVSLEAWLQREAQTLQQYRVELAEKHQKTLQLLRKQQTIILDDELIQWKRRQQLAGNGGPPEGSLDVLQSWCEKLAEIIWQNRQQIRRAEHLCQQLPIPGPVEEMLAEVNATITDIISALVTSTFIIEKQPPQVLKTQTKFAATVRLLVGGKLNVHMNPPQVKATIISEQQAKSLLKNENTRNDYSGEILNNCCVMEYHQATGTLSAHFRNMSLKRIKRSDRRGAESVTEEKFTILFESQFSVGGNELVFQVKTLSLPVVVIVHGSQDNNATATVLWDNAFAEPGRVPFAVPDKVLWPQLCEALNMKFKAEVQSNRGLTKENLVFLAQKLFNNSSSHLEDYSGLSVSWSQFNRENLPGRNYTFWQWFDGVMEVLKKHLKPHWNDGAILGFVNKQQAHDLLINKPDGTFLLRFSDSEIGGITIAWKFDSQERMFWNLMPFTTRDFSIRSLADRLGDLNYLIYVFPDRPKDEVYSKYYTPVPCESATAKAVDGYVKPQIKQVVPEFVNASADAGGGSATYMDQAPSPAVCPQAHYNMYPQNPDSVLDTDGDFDLEDTMDVARRVEELLGRPMDSQWIPHAQS
B6: BEX1, Q9HBH7 (protein)
chain: MESKEKRAVNSLSMENANQENEEKEQVANKGEPLALPLDAGEYCVPRGNRRRFRVRQPILQYRWDMMHRLGEPQARMREENMERIGEEVRQLMEKLREKQLSHSLRAVSTDPPHHDHHDEFCLMP
B7: ETV3, P41162 (protein)
chain: MKAGCSIVEKPEGGGGYQFPDWAYKTESSPGSRQIQLWHFILELLQKEEFRHVIAWQQGEYGEFVIKDPDEVARLWGRRKCKPQMNYDKLSRALRYYYNKRILHKTKGKRFTYKFNFNKLVMPNYPFINIRSSGVVPQSAPPVPTASSRFHFPPLDTHSPTNDVQPGRFSASSLTASGQESSNGTDRKTELSELEDGSAADWRRGVDPVSSRNAIGGGGIGHQKRKPDIMLPLFARPGMYPDPHSPFAVSPIPGRGGVLNVPISPALSLTPTIFSYSPSPGLSPFTSSSCFSFNPEEMKHYLHSQACSVFNYHLSPRTFPRYPGLMVPPLQCQMHPEESTQFSIKLQPPPVGRKNRERVESSEESAPVTTPTMASIPPRIKVEPASEKDPESLRQSAREKEEHTQEEGTVPSRTIEEEKGTIFARPAAPPIWPSVPISTPSGEPLEVTEDSEDRPGKEPSAPEKKEDALMPPKLRLKRRWNDDPEARELSKSGKFLWNGSGPQGLATAAADA
B8: GLMP, Q8WWB7 (protein)
chain: MRGSVECTWGWGHCAPSPLLLWTLLLFAAPFGLLGEKTRQVSLEVIPNWLGPLQNLLHIRAVGTNSTLHYVWSSLGPLAVVMVATNTPHSTLSVNWSLLLSPEPDGGLMVLPKDSIQFSSALVFTRLLEFDSTNVSDTAAKPLGRPYPPYSLADFSWNNITDSLDPATLSATFQGHPMNDPTRTFANGSLAFRVQAFSRSSRPAQPPRLLHTADTCQLEVALIGASPRGNRSLFGLEVATLGQGPDCPSMQEQHSIDDEYAPAVFQLDQLLWGSLPSGFAQWRPVAYSQKPGGRESALPCQASPLHPALAYSLPQSPIVRAFFGSQNNFCAFNLTFGASTGPGYWDQHYLSWSMLLGVGFPPVDGLSPLVLGIMAVALGAPGLMLLGGGLVLLLHHKKYSEYQSIN
B9: PKNOX1, P55347 (protein)
chain: MMATQTLSIDSYQDGQQMQVVTELKTEQDPNCSEPDAEGVSPPPVESQTPMDVDKQAIYRHPLFPLLALLFEKCEQSTQGSEGTTSASFDVDIENFVRKQEKEGKPFFCEDPETDNLMVKAIQVLRIHLLELEKVNELCKDFCSRYIACLKTKMNSETLLSGEPGSPYSPVQSQQIQSAITGTISPQGIVVPASALQQGNVAMATVAGGTVYQPVTVVTPQGQVVTQTLSPGTIRIQNSQLQLQLNQDLSILHQDDGSSKNKRGVLPKHATNVMRSWLFQHIGHPYPTEDEKKQIAAQTNLTLLQVNNWFINARRRILQPMLDSSCSETPKTKKKTAQNRPVQRFWPDSIASGVAQPPPSELTMSEGAVVTITTPVNMNVDSLQSLSSDGATLAVQQVMMAGQSEDESVDSTEEDAGALAPAHISGLVLENSDSLQ
B10: WFS1, O76024 (protein)
chain: MDSNTAPLGPSCPQPPPAPQPQARSRLNATASLEQERSERPRAPGPQAGPGPGVRDAAAPAEPQAQHTRSRERADGTGPTKGDMEIPFEEVLERAKAGDPKAQTEVGKHYLQLAGDTDEELNSCTAVDWLVLAAKQGRREAVKLLRRCLADRRGITSENEREVRQLSSETDLERAVRKAALVMYWKLNPKKKKQVAVAELLENVGQVNEHDGGAQPGPVPKSLQKQRRMLERLVSSESKNYIALDDFVEITKKYAKGVIPSSLFLQDDEDDDELAGKSPEDLPLRLKVVKYPLHAIMEIKEYLIDMASRAGMHWLSTIIPTHHINALIFFFIVSNLTIDFFAFFIPLVIFYLSFISMVICTLKVFQDSKAWENFRTLTDLLLRFEPNLDVEQAEVNFGWNHLEPYAHFLLSVFFVIFSFPIASKDCIPCSELAVITGFFTVTSYLSLSTHAEPYTRRALATEVTAGLLSLLPSMPLNWPYLKVLGQTFITVPVGHLVVLNVSVPCLLYVYLLYLFFRMAQLRNFKGTYCYLVPYLVCFMWCELSVVILLESTGLGLLRASIGYFLFLFALPILVAGLALVGVLQFARWFTSLELTKIAVTVAVCSVPLLLRWWTKASFSVVGMVKSLTRSSMVKLILVWLTAIVLFCWFYVYRSEGMKVYNSTLTWQQYGALCGPRAWKETNMARTQILCSHLEGHRVTWTGRFKYVRVTDIDNSAESAINMLPFFIGDWMRCLYGEAYPACSPGNTSTAEEELCRLKLLAKHPCHIKKFDRYKFEITVGMPFSSGADGSRSREEDDVTKDIVLRASSEFKSVLLSLRQGSLIEFSTILEGRLGSKWPVFELKAISCLNCMAQLSPTRRHVKIEHDWRSTVHGAVKFAFDFFFFPFLSAA

Target: nucleoprotein N of Crimean-Congo hemorrhagic fever virus
Test: AlphaScreen luminescence signal relative to Venus negative control (fold); higher = stronger binding to CCHFV N
Description: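 AlphaScreen binding of cell-free made, FLAG-GST-tagged human transcription factors and regulators (crude translation products) to biotinylated N protein; signal as fold of the FLAG-GST-Venus control. One pass.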

Binder	AlphaScreen luminescence signal
B1	3.21
B2	2.09
B3	2.47
B4	3.12
B5	2.14
B6	4.05
B7	1.77
B8	2.93
B9	1.95
B10	2.51

— the supplement of paper PMC12423691
